This is one part of the list.
Columns and labels:
Test in all cases: glycan array binding signal (z-score within array); higher = stronger binding
Conditions in all cases: glycan notation: IUPAC condensed, linker removed
Neu5Ac(a2-8)Neu5Ac = target: Neu5Ac(a2-8)Neu5Ac
Method in brief: (§1)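 Columns mapping to the same glycan were averaged after glycan names were converted to IUPAC-condensed notation. The data come from 3228 arrays in the Consortium for Functional Glycomics database, limited to those with an available protein sequence. Binding is reported as a within-array Z-score averaged across arrays of one protein sequence and across linkers.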

[1] = target: Neu5Ac(a2-8)Neu5Ac(a2-3)Gal(b1-3)GalNAc(b1-4)[Neu5Ac(a2-3)]Gal(b1-4)Glc
Method in brief: as §1

[2] = target: Neu5Ac(a2-8)Neu5Ac(a2-3)Gal(b1-3)GalNAc(b1-4)[Neu5Ac(a2-8)Neu5Ac(a2-3)]Gal(b1-4)Glc
Method in brief: as §1

[3] = target: Neu5Ac(a2-8)Neu5Ac(a2-3)Gal(b1-4)Glc
Method in brief: as §1

[4] = target: Neu5Ac(a2-8)Neu5Ac(a2-3)Gal(b1-4)GlcNAc
Method in brief: as §1

[5] = target: Neu5Ac(a2-8)Neu5Ac(a2-3)[Gal(b1-3)GalNAc(b1-4)]Gal(b1-4)Glc
Method in brief: as §1

[6] = target: Neu5Ac(a2-8)Neu5Ac(a2-3)[GalNAc(b1-4)]Gal(b1-4)Glc
Method in brief: as §1

[7] = target: Neu5Ac(a2-8)Neu5Ac(a2-8)Neu5Ac
Method in brief: as §1

[8] = target: Neu5Ac(a2-8)Neu5Ac(a2-8)Neu5Ac(a2-3)Gal(b1-4)Glc
Method in brief: as §1

[9] = target: Neu5Ac(a2-8)Neu5Ac(a2-8)Neu5Ac(a2-3)[Gal(b1-3)GalNAc(b1-4)]Gal(b1-4)Glc
Method in brief: as §1

[10] = target: Neu5Ac(a2-8)Neu5Ac(a2-8)Neu5Ac(a2-3)[GalNAc(b1-4)]Gal(b1-4)Glc
Method in brief: as §1

[11] = target: Neu5Ac(a2-8)Neu5Ac(a2-8)Neu5Ac(a2-8)Neu5Ac(a2-3)[GalNAc(b1-4)]Gal(b1-4)Glc
Method in brief: as §1

[12] = target: Neu5Ac(a2-8)Neu5Gc(a2-3)Gal(b1-4)GlcNAc
Method in brief: as §1

[13] = target: Neu5Ac(b2-6)Gal(b1-4)GlcNAc
Method in brief: as §1

Neu5Ac(b2-6)GalNAc = target: Neu5Ac(b2-6)GalNAc
Method in brief: as §1

[14] = target: Neu5Ac9Ac(a2-3)Gal(b1-3)GlcNAc
Method in brief: as §1

[15] = target: Neu5Ac9Ac(a2-3)Gal(b1-4)GlcNAc
Method in brief: as §1

[16] = target: Neu5Ac9Ac(a2-6)Gal(b1-4)GlcNAc
Method in brief: as §1

[17] = target: Neu5Gc(a2-3)Gal(b1-3)GlcNAc
Method in brief: as §1

[18] = target: Neu5Gc(a2-3)Gal(b1-3)[Fuc(a1-4)]GlcNAc
Method in brief: as §1

Neu5Gc(a2-3)Gal(b1-4)Glc = target: Neu5Gc(a2-3)Gal(b1-4)Glc
Method in brief: as §1

[19] = target: Neu5Gc(a2-3)Gal(b1-4)GlcNAc
Method in brief: as §1

[20] = target: Neu5Gc(a2-3)Gal(b1-4)GlcNAc(b1-3)Gal(b1-4)GlcNAc(b1-2)Man(a1-3)[Neu5Gc(a2-3)Gal(b1-4)GlcNAc(b1-3)Gal(b1-4)GlcNAc(b1-2)Man(a1-6)]Man(b1-4)GlcNAc(b1-4)GlcNAc
Method in brief: as §1

[21] = target: Neu5Gc(a2-3)Gal(b1-4)[Fuc(a1-3)]GlcNAc
Method in brief: as §1

[22] = target: Neu5Gc(a2-6)Gal(b1-4)GlcNAc
Method in brief: as §1

Neu5Gc(a2-6)GalNAc = target: Neu5Gc(a2-6)GalNAc
Method in brief: as §1

[23] = target: Neu5Gc(a2-8)Neu5Ac(a2-3)Gal(b1-4)GlcNAc
Method in brief: as §1

[24] = target: Neu5Gc(a2-8)Neu5Gc(a2-3)Gal(b1-4)GlcNAc
Method in brief: as §1

[25] = target: Neu5Gc(a2-8)Neu5Gc(a2-3)Gal(b1-4)GlcNAc(b1-3)Gal(b1-4)GlcNAc
Method in brief: as §1

[26] = target: Neu5Gc(a2-8)Neu5Gc(a2-6)Gal(b1-4)GlcNAc
Method in brief: as §1

[27] = target: Neu5Gc(b2-6)Gal(b1-4)GlcNAc
Method in brief: as §1

B1: ClecSol-Fc (Cryptosporidium parvum) (protein)
chain: CPEGWISNGEKTRCFKLVTFDRPRTFSHGFKACNDLGGTEVETRRRNGSKETNEYPVTLASVYKLSDEEAIRRTLVEQGDIHKTANGCFVGLRKYAFFRYPPGWYWIDSGSPVSVRDSEINWTSSYNASWLLRFKFPFEKCGFFDIGGLGRRPCWLIDSELSCAVCGTVAYDSGGLNPNKYSELIKQTDEIISKEPKLDLPGYNNLNCTDAWENNLSVGLCQNVSNILDSAWSSYQSSLNFPSINFNWKEDSTNEGGDQVYHNSYLDLPRYKQKKTFYWDQDPGTIPALSDEMKLIGLSAQPTYHPLDRSSSGSFESDSTESGRANEERNDTLEEMIYKQSSDSIEDILVPVTKPIFSDYSSIGRNSGVEEVYSSNVSTISSKGVVFPNTTTSSDNDFTKNNPANSSKHTSTSTTTNTTTTTTRTTTTTTTTTTTTTTTTTTTTETTTTKKSTTATKNTTTT
glycan array binding signal (z-score) (Neu5Ac(a2-8)Neu5Ac): -0.178
glycan array binding signal (z-score) [1]: -0.038
glycan array binding signal (z-score) [2]: -0.207
glycan array binding signal (z-score) [3]: -0.089
glycan array binding signal (z-score) [4]: -0.175
glycan array binding signal (z-score) [5]: -0.229
glycan array binding signal (z-score) [6]: -0.186
glycan array binding signal (z-score) [7]: 0.518
glycan array binding signal (z-score) [8]: 0.011
glycan array binding signal (z-score) [9]: 0.212
glycan array binding signal (z-score) [10]: -0.283
glycan array binding signal (z-score) [11]: -0.223
glycan array binding signal (z-score) [12]: -0.068
glycan array binding signal (z-score) [13]: -0.062
glycan array binding signal (z-score) (Neu5Ac(b2-6)GalNAc): -0.003
glycan array binding signal (z-score) [14]: -0.233
glycan array binding signal (z-score) [15]: 0.02
glycan array binding signal (z-score) [16]: -0.207
glycan array binding signal (z-score) [17]: 0.394
glycan array binding signal (z-score) [18]: -0.069
glycan array binding signal (z-score) (Neu5Gc(a2-3)Gal(b1-4)Glc): -0.04
glycan array binding signal (z-score) [19]: -0.119
glycan array binding signal (z-score) [20]: -0.214
glycan array binding signal (z-score) [21]: -0.11
glycan array binding signal (z-score) [22]: -0.12
glycan array binding signal (z-score) (Neu5Gc(a2-6)GalNAc): -0.108
glycan array binding signal (z-score) [23]: -0.03
glycan array binding signal (z-score) [24]: -0.109
glycan array binding signal (z-score) [25]: -0.075
glycan array binding signal (z-score) [26]: 0.219
glycan array binding signal (z-score) [27]: -0.202
